# Reference: PubChem BioAssay AID504466 (National Center for Advancing Translational Sciences (NCATS), 2011)
# The campaign covered roughly 330,000 compounds. About 4,200 (1.3%) were called active. The shares of active, inactive and inconclusive entries below differ from those in the screen. Calls come from the whole dose curve; as a rule, active = well fitted activation curve with a large enough effect; inconclusive = small, poorly fitted or top-dose-only effect; inactive = no such curve, though single readings can be large or run the other way. Where the call is inconclusive, the potency comes from a doubtful curve fit.
# Test: qHTS screen for small molecules that induce genotoxicity in human embryonic kidney (HEK293T) cells expressing luciferase-tagged ELG1; note: nearly all actives have a fitted effect of over 60% in size; for activity change, positive = activation: % of control where 0% means no effect
# Details: HEK293T ELG1-luciferase reporter, luminescence, 16 h; series mostly up to 46 µM; activity change, positive = activation: at the top concentration
# Outline: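 ELG1-luciferase HEK293T cells, 2,000/well; compound pinned in; 16 hr, 37 °C, 5% CO2; ONE-Glo, 30 min RT; luminescence on CCD imager.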
# Potency is the fitted concentration of half-maximal effect; tags give direction and shape of the fitted curve.
Structure (SMILES),Potency,"activity change, positive = activation"
Cc1ccc(S(=O)(=O)Nc2ccc3c(c2)n(C)c(=O)n3C)c(C)c1,"inconclusive: 23.1 µM [activator, single point]",–
Cc1ccc(C)c2nc3sc(C(=O)N4CCOCC4)c(N)c3cc12,"inconclusive: 16.4 µM [activator, partial curve, poor fit]",–
CCOc1ccc(N(CC(=O)NCc2ccccc2)S(C)(=O)=O)cc1,"inconclusive: 13 µM [activator, partial curve, poor fit]",–
CC1Cc2ccccc2N1C(=O)COc1ccc2c(c1)OCO2 (centres undefined),"inconclusive: 11.6 µM [activator, partial curve, poor fit]",–
O=C(Cn1cc2c(n1)CCCC2)Nc1cc(-c2cccc(Cl)c2)no1,"inconclusive: 16.4 µM [activator, single point]",–
Cc1cc(C)c2cc(C=O)c(Cl)nc2c1,"inconclusive: 20.6 µM [activator, single point]",–
Cc1cccc(NC(=O)c2ccco2)c1C,–,inactive: 2.03%
COc1ccc(NC(=O)CN2C(=O)NC(C)(c3ccccc3)C2=O)cc1Cl (centres undefined),–,inactive: 1.87%
Cc1cccc(-c2nnc3sc(-c4ccccc4)nn23)c1,"inconclusive: 16.4 µM [activator, partial curve, poor fit]",–
Nc1nnc(CC(=O)N/N=C/c2ccc(-c3cccc(C(=O)O)c3)o2)s1,–,inactive: 7.88%
CCCNC(=O)c1noc2c1CCc1ccccc1-2,"inconclusive: 16.4 µM [activator, partial curve]",–
CCCOC(=O)Nc1ccccc1C(N)=O,–,inactive: -0.681%
CCCOc1ccc(-c2nnc(-c3cccs3)o2)cc1,"inconclusive: 1.46 µM [activator, full curve]",–
COCCn1c(SCC(=O)Nc2cccc(NC(C)=O)c2)nc2c([nH]c3ccccc32)c1=O,–,inactive: 0.182%
CCn1c(C)cc(/C=C2/SC(=O)N(C(C)C(=O)OC)C2=O)c1C (centres undefined),"inconclusive: 4.61 µM [activator, full curve]",–
O=C(Nc1cccc(-c2nn[nH]n2)c1)c1csc2c1CCCC2,–,inactive: 3.31%
CCCS(=O)(=O)c1nc(S(=O)(=O)c2ccc(C)cc2)c(N2CCN(CCO)CC2)s1,–,inactive: -1.54%
CC(=O)NCc1ccc(-c2csc(-c3cccs3)n2)cc1,"inconclusive: 3.66 µM [activator, full curve]",–
O=c1[nH]c(CSc2ccccn2)nc2ccccc12,"inconclusive: 2.31 µM [activator, partial curve]",–
O=[N+]([O-])c1ccc(N/N=C/c2ccc[nH]2)cc1,–,inactive: 11.3%
CSC1=NSC2=NC(=O)/C(=C\c3cccs3)C(=N)N12,"inconclusive: 7.31 µM [activator, partial curve]",–
O=C(Nc1ccc2c(c1)OCCO2)C(=O)NC1CC1,"inconclusive: 2.06 µM [activator, full curve]",–
O=C(NC1CCN(Cc2ccccc2)CC1)c1cccc(S(=O)(=O)Nc2ccc(Br)cc2)c1,"inconclusive: 25.9 µM [activator, single point]",–
Nc1ncnc(Sc2ncccn2)c1[N+](=O)[O-],"inconclusive: 29.1 µM [activator, single point]",–
CCOC(=O)C1=C(C)N=c2s/c(=C/c3ccc(OCC(=O)O)cc3)c(=O)n2C1c1cc(OC)c(OC)c(OC)c1 (centres undefined),"inconclusive: 23.1 µM [activator, partial curve, poor fit]",–

Structure (SMILES),Potency,"activity change, positive = activation"
COc1ccc(N2C(=O)c3ccccc3NC2c2ccc(OC)c(COc3ccccn3)c2)cc1 (centres undefined),"inconclusive: 13 µM [activator, partial curve, poor fit]",–
CCc1ccc(C(=O)Nc2nc(C)cs2)s1,"inconclusive: 0.259 µM [activator, partial curve]",–
O=C(c1cc(-c2ccc(F)cc2)on1)N1CCOCC1,"inconclusive: 3.66 µM [activator, full curve]",–
Cc1ccc(-n2c(C)cc(C(=O)CSc3nncs3)c2C)cc1,"inconclusive: 2.59 µM [activator, partial curve, poor fit]",–
CC1(c2ccc3c(c2)OCCO3)NC(=O)N(CC(=O)Nc2ccccc2SCC#N)C1=O (centres undefined),–,inactive: -1.63%
CC(C)CCNC(=O)/C=C/c1ccc(Br)cc1,–,inactive: 4.22%
O=C(Nc1cccnc1)c1ccc(Oc2ccccc2)cc1,active: 4.11 µM,–
C[C@@H](C(=O)Nc1ccc2c(c1)OCCO2)n1c(=O)[nH]c2ccccc2c1=O,"inconclusive: 23.1 µM [activator, partial curve]",–
CC(C)(C)c1ccc(Cn2c(=O)cnc3ccccc32)cc1,"inconclusive: 29.1 µM [activator, single point]",–
Cc1ccc(COC(=O)CCCN=C2NS(=O)(=O)c3ccccc32)cc1,"inconclusive: 11.6 µM [activator, partial curve, poor fit]",–
Cc1ccccc1CC1(CO)CCCN(C(=O)Cc2c(F)ccc(F)c2F)C1 (centres undefined),–,inactive: -3.07%
CC(c1ccccc1)N1CCN(C(=O)CCl)CC1 (centres undefined),–,inactive: -14.3%
COc1ccc2cc(CCNC(=O)C3CCCC3)c(=O)[nH]c2c1,"inconclusive: 32.6 µM [activator, partial curve, poor fit]",–
COc1cccc(-c2cc(C(=O)N3CCCCC3C)no2)c1 (centres undefined),active: 9.2 µM,–
Cc1ccc(C2=NOC(=O)/C2=C\c2ccc(C)o2)cc1,"inconclusive: 23.1 µM [activator, partial curve, poor fit]",–
O=S(=O)(NC1CCc2ccccc21)c1ccc(S(=O)(=O)N2CCCC2)cc1 (centres undefined),–,inactive: -17.5%
COC(=O)CCC(=O)NC(=S)Nc1ccc(S(=O)(=O)N2CCCC2)cc1,–,inactive: -2.07%
CC(C)[C@@H](CO)NC(=O)c1ccc2c3n(nc2c1)-c1ccc(Cl)cc1CO3,"inconclusive: 9.2 µM [activator, partial curve]",–
COc1cc(-n2c(N)c(C(=O)NCc3ccco3)c3nc4ccccc4nc32)cc(OC)c1OC,–,inactive: 10.2%
CCc1ccc(-c2cc3c(=O)n(CC(=O)NCCCN4CCN(C)CC4)ncn3n2)cc1,"inconclusive: 9.2 µM [activator, partial curve]",–
C/C(=N/NC(=O)c1ccc(C)s1)c1ccncc1,"inconclusive: 20.6 µM [activator, single point]",–
CCOc1ccccc1CN1CCNC(=O)C1CC(=O)NCCCn1cccn1 (centres undefined),–,inactive: 3.01%
CC(=O)c1cccc(OCC(=O)Nc2cccc(C(=O)Nc3c(C)n(C)n(-c4ccccc4)c3=O)c2)c1,–,inactive: -4.02%
Cc1occc1C(=O)N/N=C/c1ccccn1,"inconclusive: 23.1 µM [activator, partial curve, poor fit]",–
CCn1c(=O)cc(SCC(=O)NCc2cccnc2)c2ccccc21,"inconclusive: 20.6 µM [activator, partial curve, poor fit]",–

Structure (SMILES),Potency,"activity change, positive = activation"
O=C(Nc1ccc2c(c1)OCO2)c1ccc(Br)s1,active: 1.84 µM,–
CC(C)(C)NC(=O)NC(=O)COC(=O)c1cccc(S(=O)(=O)N2CCCCC2)c1,–,inactive: 3.29%
CCc1cc(CNC(=O)CCc2nnc(CCCc3ccccc3)o2)on1,active: 18.3 µM,–
COc1cc(-c2nc3cnccn3c2Nc2ccc(C)cc2)ccc1O,active: 13 µM,–
CC(C)CN(C(=O)COC(=O)Cc1cccc2ccccc12)c1c(N)n(Cc2ccccc2)c(=O)[nH]c1=O,–,inactive: 0%
Cc1ccc(-c2cc(C(=O)N3CCOCC3)no2)cc1,"inconclusive: 3.55 µM [activator, partial curve, poor fit]",–
Fc1ccc(COc2ccccc2-c2ccnc3ncnn23)cc1,"inconclusive: 18.3 µM [activator, partial curve, poor fit]",–
O=C(Cc1cccs1)NCc1ccc(Cl)cc1Cl,"inconclusive: 25.9 µM [activator, partial curve]",–
Cn1cnc2cc(OC(=O)c3ccccc3)ccc21,–,inactive: 3.58%
Cc1ccc(C(=O)CSc2nnc(N)s2)c(C)c1,active: 14.6 µM,–
CCOc1ccc(C(=O)CCC(=O)N(CC)CC(=O)NCc2cccs2)cc1,"inconclusive: 29.1 µM [activator, single point]",–
Cc1cc(-c2nnc(CCC(=O)N(C)CCc3ccccc3)o2)no1,"inconclusive: 18.3 µM [activator, partial curve, poor fit]",–
CCOC(=O)c1ccc(N/C=C2\CCCCC2=O)cc1,active: 2.31 µM,–
O=C(COC(=O)c1ccc2c(c1)S(=O)(=O)N=C1CCCCCN12)NCCc1ccc(F)cc1,–,inactive: 0.338%
Cc1ccc(C)c(OCC(=O)Nc2cc(C)on2)c1,"inconclusive: 16.4 µM [activator, partial curve, poor fit]",–
CNC(=O)c1cc2c(ccc3ccccc32)o1,"inconclusive: 23.1 µM [activator, single point]",–
COc1ccc2oc(C(=O)OCc3c(C)noc3C)c(C)c2c1,"inconclusive: 25.9 µM [activator, partial curve, poor fit]",–
Cc1cc(C)c2nc(N3CCC(C(=O)N4CCN(C(=O)c5ccco5)CC4)CC3)sc2c1,–,inactive: -16.6%
COc1ccc(CC(=O)Nc2ccc(-c3nc4cc(C)ccc4o3)c(O)c2)cc1OC,"inconclusive: 20 µM [activator, partial curve]",–
Cc1cccc(C)c1NC(=O)CN(C)C(=O)CC1CC2CCC1C2 (centres undefined),–,inactive: 2.7%
Cc1ccc(N/C=C/c2onc(C)c2[N+](=O)[O-])cc1,active: 1.3 µM,–
Cc1ccc(NC(=O)CCC(=O)c2cccs2)nc1,"inconclusive: 20.6 µM [activator, single point]",–
COc1ccc(OC)c(C(=O)NC(CC(N)=O)c2ccc(N3CCCCCC3)c([N+](=O)[O-])c2)c1 (centres undefined),–,inactive: -2.18%
Cn1c(=O)[nH]c(=O)c2c1nc(Sc1ncccn1)n2CCCc1ccccc1,"inconclusive: 29.1 µM [activator, partial curve, poor fit]",–
